The values below come from PMC4336329 (PLoS ONE, 2015).

The campaign covered roughly 310,000 compounds. About 2,200 (0.71%) showed an effect of 50% or more. Effects have a minus sign here. The list shows a part of the results.

human ether-à-go-go-related gene (hERG) potassium channel, sequence (Q12809 whole entry, looked up): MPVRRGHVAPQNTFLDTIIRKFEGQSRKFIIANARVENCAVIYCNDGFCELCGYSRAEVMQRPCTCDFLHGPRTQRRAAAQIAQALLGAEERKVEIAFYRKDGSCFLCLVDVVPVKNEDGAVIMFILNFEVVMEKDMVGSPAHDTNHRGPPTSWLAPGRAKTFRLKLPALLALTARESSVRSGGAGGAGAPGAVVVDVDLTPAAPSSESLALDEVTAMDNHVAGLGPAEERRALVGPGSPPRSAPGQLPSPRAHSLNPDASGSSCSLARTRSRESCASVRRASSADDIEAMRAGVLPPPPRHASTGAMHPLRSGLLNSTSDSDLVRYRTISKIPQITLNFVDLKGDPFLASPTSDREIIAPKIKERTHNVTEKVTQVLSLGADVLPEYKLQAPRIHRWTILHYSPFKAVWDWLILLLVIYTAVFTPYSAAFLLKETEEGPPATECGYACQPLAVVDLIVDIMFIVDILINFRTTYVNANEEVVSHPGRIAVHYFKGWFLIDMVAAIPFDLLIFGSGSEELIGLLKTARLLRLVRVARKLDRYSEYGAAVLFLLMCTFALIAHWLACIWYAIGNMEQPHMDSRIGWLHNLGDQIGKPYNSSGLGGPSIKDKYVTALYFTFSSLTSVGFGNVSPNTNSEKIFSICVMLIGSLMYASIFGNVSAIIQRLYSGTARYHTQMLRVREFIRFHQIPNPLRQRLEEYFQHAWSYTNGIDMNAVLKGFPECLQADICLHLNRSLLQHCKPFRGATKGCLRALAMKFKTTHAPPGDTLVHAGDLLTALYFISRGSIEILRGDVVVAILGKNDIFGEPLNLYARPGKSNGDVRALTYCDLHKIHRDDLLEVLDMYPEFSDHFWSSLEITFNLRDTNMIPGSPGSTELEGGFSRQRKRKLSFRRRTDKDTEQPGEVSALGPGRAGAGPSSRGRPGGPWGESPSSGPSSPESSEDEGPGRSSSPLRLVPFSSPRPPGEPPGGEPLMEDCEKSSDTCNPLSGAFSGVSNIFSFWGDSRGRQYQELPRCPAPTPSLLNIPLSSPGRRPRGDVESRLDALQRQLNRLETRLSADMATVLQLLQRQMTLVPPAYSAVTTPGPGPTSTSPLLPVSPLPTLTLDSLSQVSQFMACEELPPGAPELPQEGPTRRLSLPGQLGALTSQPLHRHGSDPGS

The assay addresses human ether-à-go-go-related gene (hERG) potassium channel (human, UniProt Q12809). In words: primary screen, population patch clamp on CHO cells stably expressing hERG.
`Cc1ccc(C2c3c(oc4ccccc4c3=O)C(=O)N2CCCN2CCOCC2)o1` (stereo not shown): the “hERG current change (%, negative = inhibition) at 1uM” value is on record as 7.56%.

As for `CCC(CC)C(=O)N1CCN(c2cccc(C)c2C)CC1`, the “hERG current change (%, negative = inhibition) at 1uM” value came out at 13.3%.

`Cc1cc(=O)[nH]c(SCC(=O)N2CCCC(C)C2)n1` (stereo not shown): the “hERG current change (%, negative = inhibition) at 1uM” value came to 16.8%.

For `CNC(=O)c1cc(NC(=O)CCn2nc(-c3ccc(C)cc3)c3ccccc3c2=O)ccc1OC`, the “hERG current change (%, negative = inhibition) at 1uM” value is reported as 13.9%.

Take `Cc1cccc(NC(=O)c2ccc(C(=O)Nc3cccc(C)c3)nc2)c1`: the “hERG current change (%, negative = inhibition) at 1uM” value was 23.7%.

Turning to `CC1CC(C)CN(CC(C)(C)NS(=O)(=O)c2ccccc2)C1` (stereo not shown), the “hERG current change (%, negative = inhibition) at 1uM” value turned out to be 7.86%.

As to `CC1(c2ccc(OC(F)F)cc2)NC(=O)N(CC(=O)Nc2ccc3c(c2)OCO3)C1=O` (stereo not shown), the “hERG current change (%, negative = inhibition) at 1uM” value was 5.22%.

Turning to `Cc1ccc2[nH]c(O)c(N=NC(=O)C(C)n3cnc4ccccc4c3=O)c2c1` (stereo not shown), the “hERG current change (%, negative = inhibition) at 1uM” value came out at 8.8%.

In the case of `CCN(CC)S(=O)(=O)c1ccc(NC(=S)Nc2ccc(F)cc2)cc1`, the “hERG current change (%, negative = inhibition) at 1uM” value turned out to be 17.3%.

`CCN(CC)CCOC(=O)CCc1cccc2ccccc12.O=C(O)C(=O)O`: the “hERG current change (%, negative = inhibition) at 1uM” value is on record as -3.77%.

Take `O=C(Nc1cc(S(=O)(=O)N2CCCCC2)ccc1N1CCCCC1)C1CC1`: the “hERG current change (%, negative = inhibition) at 1uM” value is recorded as -9.12%.

`Cl.NC(CC(=O)O)c1ccc(Br)cc1` (stereo not shown): the “hERG current change (%, negative = inhibition) at 1uM” value stood at 10.7%.

In the case of `Cc1ccc(SCC(=O)Nc2cccnc2)cc1`, the “hERG current change (%, negative = inhibition) at 1uM” value amounted to 12.7%.

Consider `CC(=O)Nc1ccc(C(=O)OCC(=O)Nc2ccccc2Sc2ccccc2)cc1`, for which the “hERG current change (%, negative = inhibition) at 1uM” value is 13.6%.

As to `S=C(NCCc1ccccn1)Nc1ccc(Cl)cc1Cl`, the “hERG current change (%, negative = inhibition) at 1uM” value was 10.3%.

Take `Cc1cc(NC(=O)C(Cl)c2ccccc2)no1` (stereo not shown): the “hERG current change (%, negative = inhibition) at 1uM” value was determined as 12.3%.

As for `CCOc1ccc(Nc2nc3c(c(=O)[nH]2)CCCC3)cc1`, the “hERG current change (%, negative = inhibition) at 1uM” value turned out to be 8.9%.

With `CCN(Cc1ccccc1)S(=O)(=O)c1cc(C(=O)NC(C)C2CC3CCC2C3)ccc1OC` (stereo not shown), the “hERG current change (%, negative = inhibition) at 1uM” value amounted to 7.71%.

Consider `Cl.O=C(CN1CCCCC1)N1c2ccccc2Sc2ccc(C(F)(F)F)cc21`, for which the “hERG current change (%, negative = inhibition) at 1uM” value stood at 1.3%.

Take `Oc1ccccc1C1=Nc2ncnn2C(c2ccccc2)C1` (stereo not shown): the “hERG current change (%, negative = inhibition) at 1uM” value is recorded as 5.87%.

Regarding `CC(C)O.CCc1ccc(-n2c(O)c(/C=N/N3CCCCC3c3cccnc3)c(=O)[nH]c2=O)cc1` (stereo not shown), the “hERG current change (%, negative = inhibition) at 1uM” value stood at 11.8%.

As to `c1ccc(Cn2nnc3ccccc32)cc1`, the “hERG current change (%, negative = inhibition) at 1uM” value is reported as 10%.

For the molecule `O=C(CCS(=O)(=O)c1ccc(Br)cc1)N1CCN(c2ccc(Cl)cc2)CC1`, the “hERG current change (%, negative = inhibition) at 1uM” value is -9.99%.

With `COc1cc(NS(=O)(=O)c2ccc(C)cc2)c2ncccc2c1`, the “hERG current change (%, negative = inhibition) at 1uM” value is listed as -2.95%.

Take `CC(CNC(=O)Cn1ccc(N)nc1=O)c1ccccc1` (stereo not shown): the “hERG current change (%, negative = inhibition) at 1uM” value amounted to 8.89%.

In the case of `COc1ccc(C(=O)C2CCCN(Cc3ccon3)C2)c(OC)c1` (stereo not shown), the “hERG current change (%, negative = inhibition) at 1uM” value is listed as -17.2%.

Turning to `CC(OC(=O)c1ccc(NS(=O)(=O)c2ccc3[nH]c(=O)[nH]c3c2)cc1)C(N)=O` (stereo not shown), the “hERG current change (%, negative = inhibition) at 1uM” value stood at 17.1%.

Turning to `CCOc1ccc(NC(=O)CN2CCN(CC(=O)Nc3ccc(OC)cc3OC)CC2)cc1`, the “hERG current change (%, negative = inhibition) at 1uM” value is -58.2%.

As to `Cc1cc2[nH]c(=O)c3ccccc3n2n1`, the “hERG current change (%, negative = inhibition) at 1uM” value stood at 17.6%.

In the case of `Cc1nnc2ccc(N3CCC4(CC3)OCCO4)nn12`, the “hERG current change (%, negative = inhibition) at 1uM” value is reported as 5.97%.

Consider `CN(Cc1ccccc1)Cc1c(O)ccc2ccccc12`, for which the “hERG current change (%, negative = inhibition) at 1uM” value is on record as 9.42%.

Consider `COc1ccc(-c2cc(O)cc(O)c2)cc1`, for which the “hERG current change (%, negative = inhibition) at 1uM” value is listed as 0.626%.

As to `NS(=O)(=O)c1ccc(NC(=O)CSc2nc3ccccc3nc2N2CCOCC2)cc1`, the “hERG current change (%, negative = inhibition) at 1uM” value stood at 13.9%.

As for `COc1ccc(CCn2c(C3CCCCC3)nc3c(c(=O)c4ccccc4n3C)c2=O)cc1`, the “hERG current change (%, negative = inhibition) at 1uM” value came out at 7.34%.

Take `CN1CCN(c2ccc(CNS(=O)(=O)c3ccccc3)cc2)CC1`: the “hERG current change (%, negative = inhibition) at 1uM” value is listed as 10.6%.

As to `CCOC(=O)COn1c(=O)c(=O)n(O)c2ccccc21`, the “hERG current change (%, negative = inhibition) at 1uM” value was 10.4%.

Turning to `Cl.c1ccc(CC2CCCNC2)cc1` (stereo not shown), the “hERG current change (%, negative = inhibition) at 1uM” value came to 4.85%.

With `O=C(COc1ccc(C(=S)N2CCOCC2)cc1)Nc1ccccc1C(F)(F)F`, the “hERG current change (%, negative = inhibition) at 1uM” value was determined as 12.7%.

On to `CCCCn1c(SCc2cccc([N+](=O)[O-])c2)nc2ccsc2c1=O`, for which the “hERG current change (%, negative = inhibition) at 1uM” value was 13.8%.

`COc1ccc(C2CC(c3cccs3)=NN2C(=O)CSc2nnc(N)s2)cc1OC` (stereo not shown): the “hERG current change (%, negative = inhibition) at 1uM” value came out at 4.1%.

Regarding `O=c1ccnc(SCCc2ccc([N+](=O)[O-])cc2)[nH]1`, the “hERG current change (%, negative = inhibition) at 1uM” value turned out to be 1.46%.

`CCCn1c(SCC(=O)Nc2cc(C(=O)O)ccc2C)nc2sc3c(c2c1=O)CCC3`: the “hERG current change (%, negative = inhibition) at 1uM” value is recorded as 11.6%.

With `COc1ccc(CCN=C2SCC(=O)N2C)cc1OC`, the “hERG current change (%, negative = inhibition) at 1uM” value is listed as 8.91%.

Turning to `Cc1cccc(NC(=O)CN(C)S(=O)(=O)c2cccs2)c1`, the “hERG current change (%, negative = inhibition) at 1uM” value is reported as 11.8%.

Take `CCOC(=O)c1nn(-c2sc(C(=O)OC)c(C)c2C(=O)OC)cc1O`: the “hERG current change (%, negative = inhibition) at 1uM” value is 9.99%.

Regarding `NC(=O)c1ccccc1OCC(=O)Nc1cccnc1Cl`, the “hERG current change (%, negative = inhibition) at 1uM” value is listed as 5.88%.
